Laboratory results: PubChem BioAssay AID1030 (National Center for Advancing Translational Sciences (NCATS), 2008)
The campaign covered roughly 220,000 compounds. About 16,000 (7.3%) were called active. The inconclusive results got no clear call from the source; some entries with a clear call stand among them for comparison. Calls follow the shape of the dose curve; as a rule, active = well fitted inhibition curve with a large enough effect (not every such curve was filed as active); inconclusive = small, poorly fitted or top-dose-only effect, or another doubt; inactive = no such curve, though single readings can be large or run the other way. Potencies of inconclusive entries are left out as doubtful fits.

target: Aldehyde dehydrogenase 1A1 (Homo sapiens) (UniProt P00352); experiment: qHTS Assay for Inhibitors of Aldehyde Dehydrogenase 1 (ALDH1A1); conditions: Purified ALDH1A1, NADH fluorescence, propionaldehyde substrate; series mostly up to 75.3 µM; activity, negative = inhibition: at the top concentration;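 as to activity, negative = inhibition: plate controls were no enzyme wells and a reference inhibitor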
Chain of UniProt P00352 (P00352 whole entry, looked up): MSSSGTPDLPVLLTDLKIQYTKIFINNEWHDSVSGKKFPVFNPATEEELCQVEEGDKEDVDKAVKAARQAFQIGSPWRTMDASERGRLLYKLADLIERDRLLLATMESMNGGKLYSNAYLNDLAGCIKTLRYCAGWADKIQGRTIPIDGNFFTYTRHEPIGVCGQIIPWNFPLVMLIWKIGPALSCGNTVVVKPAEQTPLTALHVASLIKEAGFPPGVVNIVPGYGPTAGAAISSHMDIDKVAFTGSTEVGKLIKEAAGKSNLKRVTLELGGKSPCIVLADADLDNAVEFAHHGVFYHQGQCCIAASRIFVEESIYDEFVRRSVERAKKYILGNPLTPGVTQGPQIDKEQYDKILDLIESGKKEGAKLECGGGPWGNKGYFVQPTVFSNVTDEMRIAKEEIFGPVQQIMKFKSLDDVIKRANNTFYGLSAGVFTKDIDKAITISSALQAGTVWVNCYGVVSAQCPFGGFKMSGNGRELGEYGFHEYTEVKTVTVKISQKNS
Potency is read from the fitted curve at half-maximal effect; tags tell the direction and shape of the fitted curve.

Compound	Potency	activity, negative = inhibition
O=C(Nc1ccccc1)c1ccc(NCc2ccco2)c(S(=O)(=O)N2CCOCC2)c1	inconclusive [inhibitor, partial curve]	–
Cc1cccc(N2CCN(C(=O)c3ccccc3NC(=O)C3CC=CCC3C(=O)O)CC2)c1 (stereo not given)	–	inactive: 3.71%
CCOC(=O)c1c(C)nc(C)c2c(=O)oc3ccccc3c12	inconclusive [inhibitor, partial curve, poor fit]	–
CCOC(=O)N1CCN(c2cc(C)c(C(C)=O)cc2F)CC1	inconclusive [inhibitor, single point]	–
COC(=O)C1=C(C)NC(=O)NC1c1ccc(-c2ccccc2Cl)o1 (stereo not given)	active: 10 µM	–
COC(=O)Cn1c(=NC(=O)c2cc(OC)c(OC)c(OC)c2)sc2cc(OC)ccc21	inconclusive [inhibitor, partial curve]	–
CCCCNCCOCCOc1ccc(Cl)cc1Br	–	inactive: -5.34%
O=C(CN1CCCN(S(=O)(=O)c2ccc(F)cc2)CC1)Nc1ccccc1Br	active: 28.2 µM	–
Cc1ccc(-c2nc(-c3ccccn3)no2)cc1Cl	–	inactive: -4.95%
N#C/C(=C\c1ccc(-c2ccccc2[N+](=O)[O-])o1)C(=O)Nc1nc(-c2cccs2)cs1	active: 1.78 µM	–
O=C(CN1C(=O)S/C(=C/c2cccnc2)C1=O)N1CCOCC1	inconclusive [inhibitor, single point]	–
c1cc(Nc2ncnc3sccc23)cc(-c2nnc3n2CCCCC3)c1	–	inactive: -7.27%
COc1cccc(NC(=S)NNC(=O)c2ccccc2OC(F)F)c1	active: 25.1 µM	–
Cc1cc(=O)n2c(C(=O)Nc3ccc(C)c(C)c3)c(C(=O)Nc3ccccc3)sc2n1	inconclusive [inhibitor, full curve]	–
CSc1nc2ccc(S(=O)(=O)N3CCOCC3)cc2s1	–	inactive: -5.05%
CCOC(=O)c1cc(-c2ccccc2)sc1NC(=O)c1cc(OC)c(OC)c(OC)c1	inconclusive [inhibitor, partial curve]	–
O=C(/C=C/c1ccco1)Nc1cc(Cl)ccc1C(=O)O	inconclusive [inhibitor, single point]	–
O=c1c([N+](=O)[O-])c(NC2CCCCC2)c2ccccc2n1-c1ccccc1	inconclusive [inhibitor, partial curve, poor fit]	–
N#Cc1c(-c2ccccc2)ccnc1Oc1ccccc1	inconclusive [inhibitor, single point]	–
NC(=O)CN(N=Nc1cccc([N+](=O)[O-])c1)c1cccc([N+](=O)[O-])c1	active: 1.78 µM	–
CCc1cc(=O)oc2cc(C)cc(OCc3nn[nH]n3)c12	inconclusive [inhibitor, partial curve]	–
COc1ccc(CNC(=O)c2c(N)n(CCCN3CCOCC3)c3nc4ccccc4nc23)cc1	inconclusive [inhibitor, partial curve]	–
CC(=O)NC(=O)NC1OC(=O)C(Cl)=C1Cl (stereo not given)	inconclusive [inhibitor, single point]	–
O=C(O)c1cc2ccc3ccccc3c2[nH]1	inconclusive [inhibitor, partial curve]	–
Cc1ccc(-n2c(=O)[nH]c3c(oc4ccccc43)c2=O)cc1	inconclusive [inhibitor, single point]	–

Compound	Potency	activity, negative = inhibition
CS(=O)(=O)c1ccc2nc(NC3(C(F)(F)F)N=C4SCCN4C3=O)sc2c1 (stereo not given)	–	inactive: 4.54%
COc1ccc(C(=O)NNC2=Nc3cccc4cccc2c34)cc1	–	inactive: 5.98%
CC1(C)CC(=O)c2sc(NS(=O)(=O)c3ccc(F)cc3)nc2C1	inconclusive [inhibitor, single point]	–
COc1cc(OC)c2c(=O)cc(-c3ccccc3)oc2c1	inconclusive [inhibitor, partial curve]	–
COCCNC(C(=O)Nc1ccc(C)cc1[N+](=O)[O-])c1ccccc1 (stereo not given)	active: 25.1 µM	–
COc1ccc2c(C)cc(=O)oc2c1	inconclusive [inhibitor, partial curve]	–
Cc1cc2n(n1)SC(Nc1ccc(F)c(Cl)c1)N2 (stereo not given)	active: 2.82 µM	–
CCc1ccc[n+](-c2[nH]c(=O)sc2/C=N/NC([S-])=Nc2ccccc2)c1	active: 14.1 µM	–
COCCNC(=S)N1CCC(Cc2ccccc2)CC1	inconclusive [inhibitor, single point]	–
COc1ccc(S(=O)(=O)NCCSCc2ccco2)cc1OC	inconclusive [inhibitor, single point]	–
O=c1cnnc(Nc2ccccc2F)[nH]1	–	inactive: 9.78%
COC(=O)c1ccc(C(=O)OC)c(NS(=O)(=O)c2ccc(NC(C)=O)cc2)c1	inconclusive [inhibitor, single point]	–
O=C(Nc1ccc2c(c1)OCO2)c1c(Cl)nc2sccn12	–	inactive: 10.3%
Cc1cc(O)c(C(C)C)cc1N=Cc1cc([N+](=O)[O-])ccc1O	–	inactive: -10.7%
NS(=O)(=O)c1cc(C(=O)OCC(=O)c2ccccc2)c(Cl)cc1Cl	active: 15.8 µM	–
CN=C1SC(CC(=O)Nc2ccc(F)cc2F)C(=O)N1/N=C(\C)c1cccc(OCC(=O)O)c1 (stereo not given)	inconclusive [inhibitor, single point]	–
Cc1ccc(NC(=O)OCc2cc(-c3ccccc3)on2)cc1	–	inactive: 1.82%
COc1ccc(C(NC(=O)C2CCCCC2)c2c(O)ccc3ccccc23)cc1 (stereo not given)	–	inactive: -7.12%
c1ccc2c(c1)CC1(CCCCC1)n1nnnc1-2	active: 12.6 µM	–
COc1ccc(C)cc1NC(=O)COC(=O)C1CC1	–	inactive: 1.77%
OCC1(CCOc2ccccc2)CCN(Cc2cn[nH]c2-c2ccccc2)CC1	–	inactive: 2.48%
Cc1ccc2c(c1)c(N=NC(N)=O)c(O)n2C	–	inactive: 2.36%
CCn1nc(NC(=O)c2cccs2)c2cc3ccccc3nc21	–	inactive: -13.1%
CCOC(=O)c1cnc(-n2nc(C)cc2C)nc1NCCc1ccccc1	inconclusive [inhibitor, single point]	–
CS(=O)(=O)c1cnc2c(-c3ccc(F)cc3)cnn2c1N	inconclusive [inhibitor, single point]	–
